Test results published in PubChem BioAssay AID1508624 (National Center for Advancing Translational Sciences (NCATS), 2021).
Out of some 48,000 compounds screened, about 120 (0.25%) were called active. About 4% were inconclusive and are not listed. The call rests on the fitted dose curve; in most records, active means well fitted activation curve with a large enough effect; inconclusive means small, poorly fitted or top-dose-only effect, or another doubt; inactive means no such curve, though single readings can be large or run the other way. This is one part of the list.

assay: Primary qHTS for Identification of Small Molecule Activators of Huntingtin-Antisense Promoter Activity; conditions: HEK293 HTT-AS promoter firefly luciferase reporter, 24 h; series mostly up to 57.5 µM; activity change, positive = activation: at the top concentration; further: nearly all actives have a fitted effect of over 55% in size
How it was run: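 Quantitative HTS used concentration series of up to 57.5 uM final on HEK293 luciferase reporter cells, 24 h at 37 degrees C. Readout was Dual-Glo firefly luminescence.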

Activity change, positive = activation, inactive:
COc1cccc(CNC(=O)CN2N=C(c3ccc(C)cc3)CCC2=O)c1 2.86%
Cc1ccc(N(C)S(=O)(=O)c2ccc3c(c2)C(C)(C)C(=O)N3C)cc1C -32.4%
O=C(NCc1ccccc1Cl)c1cccn1-c1nnc(N2CCCCC2)s1 -15%
CCC(C(=O)N1CCN(c2cc(Cl)ccc2C)CC1)n1nc(C)c2sc3ccccc3c2c1=O (stereo unspecified) -7.75%
CCN(CC)CCCNC(=O)CCCn1c(=O)[nH]c2ccc(Br)cc2c1=O -4.4%
CC(=O)c1ccccc1NS(=O)(=O)c1cc2c(cc1C)NC(=O)CO2 -2.69%
CCN(c1ccc(OC)cc1)S(=O)(=O)c1nnc(NC(=O)COc2ccc(F)cc2)s1 -34.9%
CC(C)CC(=O)NCC(c1ccc2c(c1)OCO2)N1CCN(c2ccccc2F)CC1 (stereo unspecified) -15.3%
Cc1ccccc1N(C)C(=O)c1noc2c1COc1ccccc1-2 20.9%
Cc1cccc(-c2nc(SCC(=O)NCC3CCCO3)c3c(=O)n(C)c(=O)n(C)c3n2)c1 (stereo unspecified) 5.28%
CCCN(CCc1cccs1)[C@H]1CCc2c(O)cccc2C1 -10.5%
CCCCN(C)CC(O)Cn1cc(/C=C/C(=O)c2ccc(OC)c(OC)c2)c2ccccc21 (stereo unspecified) -20.3%
CCCn1ccc2c(OCC(=O)NCc3ccc(F)cc3)cccc2c1=O -14.8%
Cc1ccc(-c2nc(S(=O)(=O)c3ccc(Cl)cc3)c(N3CCCCC3)o2)cc1 -13.5%
COc1ccc(CNC(=O)Cn2nnc(-c3ccccc3F)n2)cc1 -9.07%
CCc1cc2c(cc3c(=O)n(CC(=O)N4CCCCC4)nc(CC)n32)s1 -2.89%
CC(C)(C)C(=O)NCCCC(=O)O -6.24%
COc1ccc(Cl)cc1C(=O)Nc1ccc2oc(-c3ccc(C(C)(C)C)cc3)nc2c1 -8.16%
CCCSC1=NC2(CCN(C(=O)NC3CCCCC3)CC2)N=C1c1ccccc1 -18.2% [at 11.5 µM, percent change from vehicle, -100% = no light]
NC12CC3CC(CC(C3)C1)C2
CC(C)c1nnc(NC(=O)c2nc(SCc3ccc(F)cc3)ncc2Cl)s1 3.61%
CCCSc1ncc(Cl)c(C(=O)Nc2sc3c(c2C(=O)NCC)CCCC3)n1 -12.5%
Cc1ccc(Cl)cc1N1CCN(C(=O)c2cccn2-c2nnc(N3CCCCC3)s2)CC1 -28.5%
COc1cc(Cl)ccc1OC(=O)c1cn(-c2ccccc2OC)c(=O)c2ccccc12 -11.5%
CC1C(=O)Nc2ccc(S(=O)(=O)Nc3ccccc3Br)cc2NC1=O (stereo unspecified) -5.56%
CCC(=O)NC[C@H](Cc1ccc(OCCc2nc(-c3ccccc3)oc2C)cc1)NC(C)=CC(=O)c1ccc(C(F)(F)F)cc1 -9.39%
CC(C)CCNC(=O)c1ccc(Cn2c(SCC(=O)NC(C)C)nc3ccccc3c2=O)cc1 -16.2%
Cc1cc(NC(=O)c2ccc(-c3ccc(Br)cc3)o2)cc(-c2nc3ncccc3o2)c1O -1.62%
Cc1c(-c2ccccc2)c(=O)oc2c(CN3CCN(C)CC3)c(O)ccc12 -17.5%
Cc1ccc2nc(Cl)c3cc(C(=O)NCCCN4CCC(C)CC4)sc3c2c1 -3.86%
Cc1ccc(C)c(S(=O)(=O)c2nnn3c2nc(NCc2cccs2)c2sccc23)c1 -49.6%
COc1ccc2c(c1)c1c(c(=O)n(-c3ccccc3)c(=O)n1CC(=O)Nc1ccc(F)cc1)n2C -15.5%
CCc1ccc(-n2c(SCC(=O)NC(C)CC)nc3n[nH]c(C)c3c2=N)cc1 (stereo unspecified) -33.5%
COc1ccc(N2CC(NC(=O)c3ccc4c(c3)OCO4)CC2=O)cc1OC (stereo unspecified) -11.1%
Cc1ccc(NC(=O)CN(C)S(=O)(=O)c2ccc3c(c2)CCC(=O)N3)c(C)c1 -6.16%
Cc1ccc(CN2CCCn3nc(C(=O)NCc4ccccc4Cl)cc3C2=O)cc1 -36.6%
CCCN1CCN(c2ncc3c(n2)CCN(Cc2ccc(OC)c(OC)c2OC)C3)CC1 -8.14%
Cc1ccc(NC(=O)Cn2nc(-c3ccc(F)cc3)c3cnc4ccc(C)cc4c32)cc1 2.77%
COc1ccccc1-c1noc(-c2ccc(N(C)Cc3ccccc3)c([N+](=O)[O-])c2)n1 -8.46%
COc1ccccc1C(=O)c1c(N)c(-c2nc(-c3ccccc3)cs2)c2ccccn12 -13%
CCCCN(CC)C(=O)CCn1c(=O)c2cccn2c2cccnc21 -8.17%
CCCCNC(=O)CN1C(=O)CSc2ccc(S(=O)(=O)N3CCC(C)CC3)cc21 -15.7%
CC(=O)c1cccc(N(C(=O)Cn2nnc3ccccc32)C(C(=O)NCc2ccccc2)c2ccc(F)cc2)c1 (stereo unspecified) -25.3%
COc1cc(NS(=O)(=O)c2ccc(N)cc2)nc(C)n1 0.808%
CSc1ncc(Cl)c(C(=O)Nc2nc3ccc(F)cc3s2)n1 3.32%
COc1cccc(NC(=O)CN(Cc2ccccc2)S(=O)(=O)c2ccc3nc(C)sc3c2)c1 -24.2%
CCOc1ccc(CNCc2c(C(=O)O)c(C)n(Cc3ccc(F)cc3Cl)c2C)cc1 -33.3%
CCN1CCN(C(=O)c2ccc3c(c2)N(Cc2ccccc2)C(=O)c2ccccc2S3=O)CC1 (stereo unspecified) -15%
Cc1nn(CCCC(=O)NCc2cccc(F)c2)c(=O)c2nn(-c3ccccc3)c(C)c12 1.53%
COc1ccc(OC)c(-c2nc(C(N)=O)c3c(n2)n(-c2ccc4c(c2)OCO4)c(=O)n3C)c1 -9.85%
CCOC(=O)c1c(S(=O)(=O)NCC(=O)Nc2ccc(Cl)c(C(F)(F)F)c2)c(C)n(C)c1C -40.9%
CCCCc1nn2c(=O)cc(COC(=O)c3cccc(NC(=O)c4cccc(C)c4)c3)nc2s1 -57.6%
CCOCCCNC(=O)Nc1cc(C(=O)NCc2ccc(C(C)C)cc2)ccc1N1CCCC1 -6.63%
CC(C)OCCCN(C)C1CCN(S(=O)(=O)c2csc(C(N)=O)c2)CC1 15.5%
COc1ccc(-n2c(C)nc3cc(C(=O)NC4CCCC4)ccc32)cc1 -18.6%
CSc1cccc(NC(=O)Cn2nc(C)c3sc4ccccc4c3c2=O)c1 8.68%
Cc1cccc(-c2nnc(SCC(=O)N3CCCc4ccccc43)o2)c1 -8.39%
COc1cc2c(cc1OC)C(COc1ccc(F)cc1)N(C(=O)c1ccccc1F)CC2 (stereo unspecified) -23.2%
CC(=O)c1ccc(C(=O)N(Cc2cccnc2)c2nc3c(Cl)cccc3s2)cc1 -37.6%
Cc1ccc(S(=O)(=O)c2nnn3c2nc(NCc2cccs2)c2sccc23)cc1C -12.3%
Cc1cc(C)cc(NC(=O)C2CCN(c3cc(C)nc4c(-c5ccc(Cl)cc5)c(C)nn34)CC2)c1 -4.79%
COC(=O)C(C)NC(=O)N1CCN(c2nnc(C)c3c(C)n(-c4ccc(Cl)cc4)nc23)CC1 (stereo unspecified) -2.02%
CCCCCCCCCCCCCCCC(=O)NCCO -2.88%
Cc1cccc(CS(=O)(=O)c2ncc(Cl)c(C(=O)Nc3nc4ccc(F)cc4s3)n2)c1 -16.1%
Cn1nnnc1SCCNCc1ccccc1OCc1ccc(Cl)cc1Cl -33.2%
COc1ccc(-n2c(SCC(=O)Nc3nnc(C)s3)nc3c([nH]c4ccccc43)c2=O)cc1 -23.6%
CCOC(=O)c1scc(-c2ccc(C)cc2)c1S(=O)(=O)Nc1cccc(CC)c1 -38.1%
CC(C)N(C(=O)c1cc2c(Cl)nc3ccccc3c2s1)C1CCCCC1 -10.7%
COc1cccc2sc(N3CCN(C(=O)CS(=O)(=O)c4ccc(Cl)cc4)CC3)nc12 -47.4%
COc1cccc(CNc2ncc(-c3ccc(Br)cc3)n2C)c1 -22.9%
Cc1cccc(C(=O)Nc2cc3c(cc2N2CCOCC2)n(C)c(=O)n3C)c1 0.477%
CCOC(=O)c1ccccc1Nc1cc(C)nc2nc(-c3ccco3)nn12 -18.5%
CCN1C(C(=O)c2ccccc2)=C(OC(=O)COc2ccccc2)c2ccccc2S1(=O)=O -36%
O=C(NCCCN1CCN(c2ccccc2)CC1)c1nnc(Cc2ccc(F)cc2)o1 -15.7%
Nc1c(-c2nc(-c3ccccc3)cs2)c2ccccn2c1C(=O)c1ccc2c(c1)OCO2 -2.7%
O=C(O)CC(NS(=O)(=O)c1ccc(Br)s1)c1ccccc1 (stereo unspecified) -9.01%
CCOc1ccc(NC(=O)Cn2cc(C(=O)c3ccc(C)cc3)c(=O)c3cc4c(cc32)OCCO4)cc1 -3.17%
Cc1cc(C)c(S(=O)(=O)N2CCN(Cc3nc4ccc(C)cc4o3)CC2)c(C)c1 -18.1%
CC1=C(C(=O)Nc2cc(C)ccc2C)C2(CCCCCC2)OC1=O -14.5%
CCc1ccccc1Nc1cc(C(=O)NCCc2ccccc2)c2ccccc2n1 -14.8%
COc1ccc(N2CCN(Cc3cc(=O)oc4ccc(OC)cc34)CC2)cc1 -14.1%
COc1ccccc1NC(=O)C1=C(C)Nc2nc3ccccc3n2C1c1cccc(Br)c1 (stereo unspecified) -28.7%
CCOC(=O)c1ccc2c(c1)N(Cc1cccc(C(F)(F)F)c1)C(=O)c1ccccc1S2(=O)=O -19.7%
O=C(Cn1c(=O)n(-c2ccc(F)cc2)c(=O)c2sc3ccccc3c21)NC1CCCCC1 -14.5%
CCCOc1ccc(Nc2cc(C)nc(C)n2)cc1 24.2%
COc1ccc(OC)c(CCNc2nccn(-c3ccc(C)c(C)c3)c2=O)c1 -16.2%
O=C(NCC(c1cccnc1)N1CCOCC1)C(=O)Nc1ccc(F)cc1 (stereo unspecified) 26.6%
CCCn1ccc2c(OCC(=O)Nc3ccccc3OCC)cccc2c1=O -38.3%
Cn1c(SCc2cccc(F)c2)nc2c([nH]c3ccccc32)c1=O -2.84%
COc1ccc(Cn2c(=O)[nH]c3cc(C(=O)N4CCN(c5ccccc5)CC4)ccc3c2=O)cc1 -9.45%
Cc1ccc(CNC(=O)CCC(=O)N2Cc3ccccc3Oc3ncccc32)cc1 -9.19%
O=C(Nc1ccc2nc(SCC(=O)N3CCCc4ccccc43)sc2c1)c1cccc(Cl)c1 -31.8%
COc1ccc(CCNC(=O)C2CCN(c3nc4ccccc4nc3C(F)(F)F)CC2)cc1OC 13.9%
COCCCNS(=O)(=O)c1ccc(N2CCCCS2(=O)=O)cc1 -5.54%
COc1ccc(C(=O)Oc2c(Sc3ccccc3)c(C)nn2-c2ccccc2)cc1OC -30.8%
Cc1ccc(NC(=O)CN2C(=O)CSc3ccc(S(=O)(=O)N4CCCC4)cc32)c(C)c1 -18.2%
